For 109 molecules, displacement results are on record in PubChem BioAssay AID1240 (Sanford-Burnham Center for Chemical Genomics, 2008).

Out of some 50,000 compounds screened, about 800 (1.6%) showed an effect of 50% or more. This is one part of the list.

In the test the target is Bcl-2-like protein 10 (Homo sapiens) (UniProt Q9HD36). The experiment in a line: TR3 peptide-Bcl-B binding displacers, biochemical primary FP assay, phenotype converters (AID 1240).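 Further: 0% = Bcl-B with tracer peptide and DMSO and 100% = tracer peptide lacking Bcl-B.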 As to conditions: GST-Bcl-B / FITC-TR3 peptide fluorescence polarization; stronger effect = higher value; compound at 3.75 mg/L.
Chain of UniProt Q9HD36 (Q9HD36 whole entry, looked up): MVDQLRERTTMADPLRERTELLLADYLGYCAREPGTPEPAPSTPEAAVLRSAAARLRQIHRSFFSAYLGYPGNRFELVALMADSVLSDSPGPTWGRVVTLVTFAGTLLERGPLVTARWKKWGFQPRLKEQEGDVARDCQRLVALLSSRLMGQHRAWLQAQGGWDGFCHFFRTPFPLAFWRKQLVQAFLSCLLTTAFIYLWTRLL
Regarding `COc1cccc(NC(=O)CN(c2cccc(C(F)(F)F)c2)S(C)(=O)=O)c1`, the displacement was 3.3%.
As for `CCC(=O)c1ccc(N2CCN(C(=O)c3ccc(F)c(F)c3)CC2)c(F)c1`, the figure is -1.9%.
For the molecule `COc1ccc(CN(C(=O)c2ccco2)C2CC(C)N(C)CC2C)cc1` (centres undefined), the displacement is -10.1%.
Then `COc1ccc(C)cc1NC(=O)c1ccc(C)c(C)c1`, with 2%; and `Cn1cnc2c1c(=O)n(Cc1ccc(F)cc1)c(=O)n2C`, with 6%; and `CC(=O)Nc1ccccc1C(=O)N1CCN(c2cccc(Cl)c2)CC1`, with -8.2%.
As for `CCOc1ccc(NC(=O)CN(c2cc(C)cc(C)c2)S(=O)(=O)c2ccccc2)cc1`, the figure is 1.3%; as for `CC1S/C(=N/N=C/c2cccs2)NC1=O` (centres undefined), 7.2%.
Consider `O=C(/C=C/c1ccccc1)NC(=S)Nc1cccc(NC(=O)c2ccccc2Cl)c1`, for which the displacement is -2.9%.
As to `NC1=NC2(CCCCC2)N=C(Nc2ccc(Cl)cc2)N1`, the displacement is -5.4%.
As for `Nc1c(C(=O)c2cccc([N+](=O)[O-])c2)sc2nccc(Nc3ccccc3)c12`, the figure is -7.3%.
Regarding `COc1cc(C2C3=C(CC(C)(C)CC3=O)OC3=C2C(=O)CC(C)(C)C3)cc(Br)c1OCc1ccccc1`, the displacement came out at 8%.
With `O=C(O)C1CCCCC1C(=O)NCCC1=CCCCC1` (centres undefined), the displacement is -11.6%.
Then `O=S(=O)(c1cccc2ccccc12)n1nnc2ccccc21`, with 0.1%; and `O=C(CSc1nnc(CCCN2C(=O)c3cccc4cccc(c34)C2=O)n1-c1ccccc1)NCc1cccnc1`, with 8.3%; and `CCOc1cc(OCC)cc(C(=O)Nc2ccc3oc(-c4cccnc4)nc3c2)c1`, with 5.6%.
Then `COc1ccc(OC)c(NC(=O)c2cc3ccccc3o2)c1`, with 1%.
As to `Cc1nn(C(=O)C(C)N2C(=O)c3ccccc3C2=O)c(C)c1Br` (centres undefined), the displacement was determined as 11.6%.
As for `CCOc1ccccc1/C=C/C(=O)c1cccs1`, the figure is -11.9%.
Consider `Cc1ccccc1NC(=O)C1COc2ccccc2O1` (centres undefined), for which the displacement was -7.2%.
As for `COc1ccc2c(c1OC)C(=O)OC2Nc1ccc(NC(C)=O)cc1` (centres undefined), the figure is 13.8%; as for `O=C(NCCCn1ccnc1)C12CC3CC(CC(C3)C1)C2`, 3.1%; as for `CC(C)(C)C(=O)Nc1cccc(C(=O)Nc2c[nH]c(=O)[nH]c2=O)c1`, 10.3%.
Then `Cc1nonc1OCCn1nnnc1-c1ccccc1`, with -9.7%; and `COc1cc(C(=O)Nc2ccc(S(=O)(=O)Nc3ncccn3)cc2)c(Br)c(OC)c1OC`, with -2.6%.
Turning to `O=C1NN(c2ccccc2)C(=O)/C1=C/c1ccc(OCCOCCOc2ccccc2)cc1`, the displacement came to 5.1%.
As for `COc1ccc(/C=N\OCC(=O)Nc2oc(-c3ccccc3)c(-c3ccccc3)c2C#N)cc1OC`, the figure is -12.8%.
As for `O=C(CCc1ccccc1)N1CCN(c2ccc(F)cc2)CC1`, the figure is -7.7%.
Then `Cc1cccc(N2C(=O)CC(N3CCN(C(c4ccccc4)c4ccccc4)CC3)C2=O)c1` (centres undefined), with 7.1%; and `COc1ccc(NC(=O)/C=C/c2ccc(OC)c(OC)c2)c(OC)c1`, with -0.9%.
Turning to `O=C(c1cnn2c(C(F)(F)F)cc(-c3ccc4c(c3)OCO4)nc12)N1CCOCC1`, the displacement was found to be 3.2%.
Then `O=c1/c(=C/c2ccccc2OCc2ccccc2F)sc2nc3ccccc3n12`, with 12.4%.
Then `Cc1ccc(-c2nnc3ccc4ccccc4n23)cc1`, with 20.3%.
As for `Cc1ccc(N2C(=O)CC(N3CCC(C(N)=O)CC3)C2=O)c(Br)c1` (centres undefined), the displacement was -3.6%.
For the molecule `Cc1c(Cl)cccc1NC(=O)CSCc1cccc(Br)c1`, the displacement amounted to 5%.
As for `Cc1ccc(N2NC(=O)/C(=C/c3ccc(-c4ccc5c(c4)C(=O)NC5=O)o3)C2=O)cc1C`, the displacement amounted to 18.2%.
With `O=C1C(=O)N(c2ccccn2)C(c2cccc(Cl)c2)/C1=C(\O)c1ccc(Cl)cc1` (centres undefined), the displacement was 11.7%.
Consider `Cc1c(C(=O)NN)c2cc(O)ccc2n1CCO`, for which the displacement turned out to be 24.3%.
In the case of `COc1ccc2oc(=O)c(NC(=O)c3ccccc3)cc2c1`, the displacement is 3.5%.
Then `CCOC(=O)c1ccc(NC(=O)c2ccc(I)cc2)cc1`, with 8.2%; and `Cc1ccc(N(CC(=O)O)S(C)(=O)=O)cc1`, with 13.1%; and `OC(CN1CCCC1)Cn1c2ccc(Br)cc2c2cc(Br)ccc21` (centres undefined), with 10.2%.
Then `Brc1ccc(OCc2nc(-c3ccccn3)no2)cc1`, with 1.6%; and `Cc1sc(NC(=O)c2ccc(F)cc2)c(C(=O)O)c1C`, with 9.6%; and `CCOC(=O)c1c[nH]c2c(Cl)c(Cl)ccc2c1=O`, with -10.6%.
As for `Cc1ccccc1NC(=O)/C=C/c1cccc([N+](=O)[O-])c1`, the figure is 2%.
On to `Cn1cnc([N+](=O)[O-])c1Sc1nccc(Nc2ccccc2)c1C#N`, for which the displacement is -2.7%.
As for `C=CCN(CC=C)C(=O)c1cc(OCC)c(OCC)c(OCC)c1`, the figure is -6.7%; as for `COc1ccc(C(=O)/C=C/Nc2ccccc2NS(=O)(=O)c2ccc([N+](=O)[O-])cc2)cc1OC`, 19.9%; as for `CCC(C(=O)NC(c1ccccc1)c1ccccc1)c1ccccc1` (centres undefined), 2.4%.
Then `Cc1cccc(OCC(=O)Nc2ccc(S(=O)(=O)Nc3ncccn3)cc2)c1`, with 14.4%; and `COc1ccc(C(=O)N2CCN(C3CCCC(C)C3)CC2)cc1OC` (centres undefined), with -1.5%.
With `COc1ccc(N(CC(=O)NCCc2ccc(OC)c(OC)c2)S(=O)(=O)c2ccc(OC)c(OC)c2)cc1`, the displacement was 11%.
Then `O=C(COc1ccc2ccccc2c1)Nc1cc(Cl)ccc1Cl`, with -34.9%; and `Cc1ccc(-c2ncnn2-c2ccc(F)c([N+](=O)[O-])c2)cc1`, with -1.3%; and `CCc1ccc(NC(=O)C(=O)NCCCO)cc1`, with 5%.
In the case of `Cc1cccc(NS(=O)(=O)c2ccc([N+](=O)[O-])cc2)n1`, the displacement worked out at 5.2%.
With `CN(C)c1ccc(/C=C2\SC(=O)N(c3ccc(Cl)cc3)C2=O)cc1`, the displacement is 15.3%.
For the molecule `O=c1[nH]c(SC2C=CCCC2)nc2sc3c(c12)CCCC3` (centres undefined), the displacement was -2.5%.
With `COc1ccccc1/C=C1\SC(N2CCC(C)CC2)=NC1=O`, the displacement was -11%.
Then `CCCOC(=O)c1c(NC(=O)C2C3CCC(C3)C2C(=O)O)sc2c1CCC(C)C2` (centres undefined), with -18%; and `CN1C(=O)NC(=O)/C(=C/c2ccc(-c3ccc(F)cc3)o2)C1=O`, with 123%.
For the molecule `O=C1NC(=S)S/C1=C/c1ccc(-c2ccc(F)cc2)o1`, the displacement was -4.4%.
Turning to `O=C(O)c1cc(N2C(=O)c3ccc(Oc4ccc5c(c4)C(=O)N(c4ccc(O)c(C(=O)O)c4)C5=O)cc3C2=O)ccc1O`, the displacement came out at 3.9%.
Then `Cc1ccc(C(=O)Nc2ccc(I)cc2)o1`, with -14.6%; and `O=C(O)CCCCCN1C(=O)C(=O)/C(=C(/O)c2ccc([N+](=O)[O-])cc2)C1c1ccccc1` (centres undefined), with -6%; and `CS(=O)(=O)N(CC(=O)Nc1cccc(C(F)(F)F)c1)c1ccc(Br)cc1`, with 1.1%.
Turning to `COc1cccc(C(=O)Nc2ccc(Cc3ccncc3)cc2)c1`, the displacement was 2%.
As for `CC1=CC(C)(C)NC(=S)N1NC(=O)c1ccccc1`, the figure is -16.9%; as for `COc1ccc(N=Cc2c(O)n(-c3ccccc3F)c(=O)[nH]c2=O)c(OC)c1`, 1.6%.
As for `COc1ccc(CN=Cc2c(O)n(-c3ccccc3F)c(=O)[nH]c2=O)cc1`, the displacement turned out to be 15.6%.
As for `CCc1ccc(OCC(=O)Nc2ccc(F)c([N+](=O)[O-])c2)cc1`, the figure is 3%; as for `COc1ccc(CCN=Cc2c(C(F)(F)F)[nH]n(-c3nc4ccccc4s3)c2=O)cc1OC`, 69.9%.
As for `C/C(=N\N1CCN(c2ccccc2)CC1)c1ccncc1`, the figure is 19.2%.
Consider `O=C(NC(=O)C(Cl)(Cl)Cl)Nc1ccc(Cl)c(Cl)c1`, for which the displacement amounted to 2.9%.
`COC(=O)c1sccc1NC(=O)c1ccc2c(c1)OCO2`: the displacement is -13.2%.
As to `O=C(Cc1ccccc1)Nc1ccc(F)cc1`, the displacement was determined as 4.3%.
With `CCOC(=O)/C(C#N)=C/c1ccc(OC)cc1OC`, the displacement was 15.7%.
Take `CCSC1=C(C#N)C(c2ccc([N+](=O)[O-])cc2)CC(=O)N1` (centres undefined): the displacement was -1.5%.
As for `Cc1nc2cc(-c3ccc(F)cc3)nn2c(C)c1Cl`, the figure is 1.1%.
As for `CC(=O)c1ccc(NC(=O)c2cc3c(ccc4ccccc43)oc2=O)cc1`, the figure is -2.8%.
For the molecule `CC1=NN(c2ccc(S(N)(=O)=O)cc2)C(=O)/C1=C\c1ccc(-c2ccc(Cl)cc2)o1`, the displacement worked out at 12.4%.
Then `CCCOc1ccc(C(=O)Nc2ccc(N3CCCCC3)cc2)cc1`, with -10.6%.
In the case of `Cc1cc(C)c(C)c(OCCn2ccnc2)c1`, the displacement is -10.7%.
As for `Cc1ccc(C(=O)NNC(=O)c2cccc(C)c2O)cc1`, the figure is 13.4%; as for `O=C(Nc1cc(Cl)ccc1Cl)c1ccc(Cl)c(Cl)c1`, -0.6%; as for `O=C1C2C3C=CC(C3)C2C(=O)N1/N=C/c1ccc(-c2ccccc2[N+](=O)[O-])o1` (centres undefined), 16.6%.
As for `CCOc1ccc(C(=O)N(C(=O)c2ccc(OCC)cc2)c2ncccc2C)cc1`, the figure is -0.9%; as for `O=C(c1ccc2c(c1)OCCO2)C1CC1`, 13.6%; as for `Cc1ccc(OCC(=O)Nc2ccc(N(C)C)cc2)cc1`, 2.6%.
Then `Cc1cccc(C)c1OCCN1CCCC1`, with 4.2%; and `COc1cc(-c2nc3nc(C)c(Br)cc3[nH]2)ccc1O`, with -0.9%; and `CCOC(=O)c1c(NC(=O)CC2Nc3ccccc3NC2=O)sc(C)c1C` (centres undefined), with -9.5%.
On to `COc1ccc(N(CC(=O)NCc2ccccc2)S(=O)(=O)c2ccccc2)cc1`, for which the displacement amounted to 16.5%.
As for `CC(=O)Nc1ccc(NC(=O)c2ccc(OCC(C)C)cc2)cc1`, the figure is -1.6%; as for `CCOC(=O)C1=C(C)N(C)C(=O)NC1c1cccc(O)c1` (centres undefined), -14.5%.
Then `Cc1ccc(NC(=O)c2ccc3ccccc3n2)cc1`, with -45.5%; and `CCC1=NN2C(=N)/C(=C/c3ccc(OCCOc4cccc(OC)c4)cc3)C(=O)N=C2S1`, with -6%; and `COc1cc(-c2noc(-c3ccc(Cl)cc3)n2)cc(OC)c1OC`, with 3.5%.
For `COc1ccccc1CNC(=O)CN(c1ccc(C)cc1)S(=O)(=O)c1ccc(C)cc1`, the displacement is 6.5%.
Then `CS(=O)(=O)N(CC(=O)Nc1ccccc1Cl)c1ccc(Br)cc1`, with -6.4%; and `O=c1c(Br)c(N2CCCC2)cnn1-c1ccccc1`, with 5.4%; and `Cc1ccc(CCSc2ccc(F)cc2)cn1`, with 4.1%.
Regarding `O=C1CCCC2=C1C(c1ccc(Cl)cc1)Nc1ccc(C(=O)c3ccccc3)cc1N2` (centres undefined), the displacement was 8.1%.
Then `O=C(Nc1cccc(C(F)(F)F)c1)c1ccc(CN2CCc3ccccc3C2)cc1`, with 6.9%.
As for `CC1(C)CC(=NOC(=O)N2c3ccccc3C=Cc3ccccc32)CC(C)(C)N1`, the figure is -0.3%.
Then `O=C(COc1ccc(/C=N/NS(=O)(=O)c2ccccc2)cc1)NCCc1ccccc1`, with -8%; and `CC(=O)Oc1ccc(/C=C2\C=C(c3ccc(Br)cc3)OC2=O)c(OC(C)=O)c1`, with 3.4%; and `CCCCc1ccc(/C=C2/C(=O)ON=C2c2ccccc2)s1`, with 40.8%.
